The record followed here is ChEMBL document CHEMBL4888484, “Replenishing the malaria drug discovery pipeline: Screening and hit evaluation of the MMV Hit Generation Library 1 (HGL1) against asexual blood stage Plasmodium falciparum ,using a nano luciferase reporter read-out” (2022).

Screen size: about 150,000 compounds; about 540 (0.36%) showed an effect of 50% or more. The list shows a part of the results.

In general, % Inhibition refers to the change of the read-out against control, counted positive when it falls.

The subject of the assay is Plasmodium falciparum. Kind of assay: Primary screen in NF54 nanoGlo assay, in single point, at 2uM, 72h; a lower Z score goes with more inhibition. The format is functional, Erythrocyte. The conditions noted are these: timepoint 72 hour.
For the compound `COc1ccc(NC(=O)C2CCN(c3cc(-c4cccc(F)c4)ncn3)CC2)cc1`, the “% Inhibition” value worked out at 4% and the Z score was -0.46.
On the same counts, the results for `O=C(NCc1cccs1)NCC1(c2ccccc2)CC1` are -10% and 1.6.
As for `Cc1ccc(N2CCCC2)c(C(=O)OCc2noc(C)n2)c1`, the “% Inhibition” value is reported as -15% and the Z score was 1.98.
The corresponding values for `CC(C)c1cc(=O)[nH]c(-n2nc(C3CC3)cc2NC(=O)c2ccc(F)c(F)c2)n1` are 5% and -0.72.
With `Cc1ncsc1CCS(=O)(=O)N(C)C1CC(C)(C)C1`, the “% Inhibition” value is given as -11% and the Z score came to 2.04.
Turning to `Cc1ccc(C)c(Cn2c(N3CCN(CC=Cc4ccccc4)CC3)nc3c2c(=O)[nH]c(=O)n3C)c1`, the “% Inhibition” value is 18% and the Z score is on record as -3.77.
On to `CCOc1cc2c(cc1-c1nccn1CCc1c[nH]cn1)CCC2`, for which the “% Inhibition” value is 5% and the Z score is on record as -0.72.
`CCOC(=O)CN(C)c1ncc(CN[C@@H]2CCOC2)cn1`: the “% Inhibition” value was 6% and the Z score was -1.2.
On to `CCn1nc(C)c(CNc2ncc(C)s2)c1C`, for which the “% Inhibition” value is recorded as -5% and the Z score is recorded as 0.83.
For `COc1ccccc1CNC(=O)c1cc2n(n1)CCCO2`, the “% Inhibition” value was -22% and the Z score is reported as 3.46.
Take `CN1CCC(CCNS(=O)(=O)Cc2ccccc2)CC1`: the “% Inhibition” value is -14% and the Z score came out at 1.98.
With `COc1ccc(CC(C)(O)CNC(=O)C2CC=CCC2)cc1` (stereo unspecified), the “% Inhibition” value is -10% and the Z score is 1.42.
The corresponding values for `COCCC(=O)Nc1cc(Br)ccc1Br` are -6% and 0.53.
The corresponding values for `Nc1c2c(-c3ccc4c(c3)OCO4)nc(N3CCC(N4CCCCC4)CC3)nc2nn1-c1ccc(Cl)cc1` are -5% and 0.45.
The corresponding values for `Cc1cnc(CN2CCc3cncnc3C2)cn1` are -4% and 0.71.
In the case of `Oc1ccc2c(c1)CCN(c1nccn3nc(C(F)(F)F)cc13)CC2`, the “% Inhibition” value is reported as -3% and the Z score amounted to 0.59.
In the case of `C[C@@H](C(=O)NCc1n[nH]c(C(C)(C)C)n1)c1ccccc1F`, the “% Inhibition” value came out at 0% and the Z score was -0.04.
For `Cc1cc(Cl)ccc1CNC[C@H](O)c1ccco1`, the “% Inhibition” value is -9% and the Z score was 0.95.
As for `COc1ccc(C(=O)NCC(=O)N2CC[C@H](Oc3cccc(F)c3)C2)cc1`, the “% Inhibition” value is reported as -1% and the Z score came out at 0.2.
Turning to `O=C(NCCc1cnn(-c2ccccc2)c1)c1cc(Cl)c[nH]1`, the “% Inhibition” value was -11% and the Z score was determined as 2.09.
As to `Cc1noc(C2CCC(NCc3sccc3C)C2)n1` (stereo unspecified), the “% Inhibition” value is on record as -13% and the Z score is given as 2.74.
For `Cn1cnn(CCOc2cc(Cl)ccc2Cl)c1=O`, the “% Inhibition” value was -8% and the Z score turned out to be 1.58.
On to `O=C(c1cc(F)ccc1F)N1CCC[C@H]1c1nc(-c2ccccc2)no1`, for which the “% Inhibition” value is -7% and the Z score stood at 0.8.
For the compound `CC(C)N1CCn2cc(S(=O)(=O)Nc3ccc(Cl)cc3)cc2C1=O`, the “% Inhibition” value was determined as 4% and the Z score is -0.63.
With `O=C(c1ccon1)N1CCC[C@H](Cn2cc(-c3ccsc3)nn2)C1`, the “% Inhibition” value worked out at 5% and the Z score is -0.69.
The corresponding values for `COC[C@@H]1[C@H](C(=O)NCCCc2ccccc2)CCCN1Cc1ccccc1` are -21% and 2.42.
The corresponding values for `O=C1CC2CS(=O)(=O)CC2N1c1nc(-c2ccc(Cl)cc2)cs1` (stereo unspecified) are -9% and 0.78.
On the same counts, the results for `CCN(CC)CCN(CC(=O)N1CCCN(c2ccc(-c3cccc(OC)c3)nn2)CC1)C(=O)C1CCC1` are -8% and 1.32.
Regarding `NCc1nccn1CCCc1ccccc1`, the “% Inhibition” value is listed as -5% and the Z score came out at 0.65.
With `c1ccc(C2CCC(N3CCN(Cc4ccco4)CC3)CC2)cc1` (stereo unspecified), the “% Inhibition” value is 36% and the Z score is -4.13.
The corresponding values for `CCC1CN(C(=O)C2CC(=O)N(CC3CC3)C2)CC1N1CCOCC1` (stereo unspecified) are -14% and 1.25.
The corresponding values for `c1ccc(Nc2ccc(-n3ccnc3-c3cc4n(n3)CCCNC4)cn2)cc1` are 13% and -2.58.
`CCn1c(CC2CCN(C(=O)c3ccc(O)cc3)CC2)nn(C)c1=O`: the “% Inhibition” value is recorded as 4% and the Z score is -0.7.
For the compound `COc1c[nH]c(C(=O)NCc2nc(C)no2)cc1=O`, the “% Inhibition” value is -8% and the Z score was determined as 1.
The corresponding values for `CN(C)c1cccc(NC(=O)NC2C3C4CCC(C4)C23)n1` (stereo unspecified) are 31% and -3.94.
Regarding `O=C(C1CCC1)N1CCCc2cc(S(=O)(=O)N3CCc4ccccc43)ccc21`, the “% Inhibition” value is reported as -10% and the Z score amounted to 1.23.
For the compound `O[C@]1(CN2CCCC2)COCCN(Cc2ccc(C(F)(F)F)nc2)C1`, the “% Inhibition” value is -10% and the Z score was found to be 0.92.
In the case of `CCN1CN(C(=O)NCCc2ncc(C)s2)CC1=O`, the “% Inhibition” value was -5% and the Z score stood at 0.81.
As for `CCCNC(=O)Nc1nn(Cc2ccccc2)c2cccc(N3CCOCC3)c12`, the “% Inhibition” value is reported as -5% and the Z score turned out to be 0.6.
For the compound `Cc1nonc1CC(=O)N[C@H]1CCOC[C@@H]1OCc1c(C)noc1C`, the “% Inhibition” value is -7% and the Z score amounted to 1.43.
As for `COc1ccc(NC(=O)Cn2c(-n3nc(C)cc3C)nc3c(c2=O)CCCC3)cc1OC`, the “% Inhibition” value was determined as 0% and the Z score is listed as -0.06.
As for `CN(C)S(=O)(=O)N1CC(Oc2nccs2)C1`, the “% Inhibition” value is reported as -6% and the Z score is reported as 0.95.
On to `c1ccc2c(c1)NCCCC2NCC1COC2(CCOCC2)O1` (stereo unspecified), for which the “% Inhibition” value is recorded as -1% and the Z score worked out at 0.11.
